± gives the standard error. Variants at the floor of the assay are shown more often than the library holds them.
B1: glmS ribozyme (parent)
chain: AUAAAAGCGCCAGAACUACAGAAAUGUAGUUGACGAGGAGGAGGUUUAUCGAAUUUUCGGCGGAUGCCUCCAAA

How the values were obtained:
Settings in all cases: with glucosamine-6-phosphate
glucosamine-6-phosphate [1] = variants of: B1; experiment: kcat; higher = faster cleavage; RNA array
How it was run: (§1)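 Barcoded ribozyme variants, transcribed in situ by E. coli RNA polymerase on sequenced MiSeq chips, were followed via a hybridised Cy3 probe at 37 °C. Glucosamine-6-phosphate ranged from 40 μM to 10 mM in HEPES/KCl/Mg(OAc)2 buffer. kobs came from decay fits to per-tile medians, and kcat and KM from weighted Michaelis–Menten fits.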

glucosamine-6-phosphate [2] = variants of: B1; experiment: self-cleavage kobs at 40 uM GlcN6P; higher = faster cleavage; RNA array
How it was run: as §1

glucosamine-6-phosphate [3] = variants of: B1; experiment: self-cleavage kobs at 640 uM GlcN6P; higher = faster cleavage; RNA array
How it was run: as §1

glucosamine-6-phosphate [4] = variants of: B1; experiment: self-cleavage kobs at 160 uM GlcN6P; higher = faster cleavage; RNA array
How it was run: as §1

glucosamine-6-phosphate [5] = variants of: B1; experiment: self-cleavage kobs at 10000 uM GlcN6P; higher = faster cleavage; RNA array
How it was run: as §1

glucosamine-6-phosphate [6] = variants of: B1; experiment: self-cleavage kobs at 2500 uM GlcN6P; higher = faster cleavage; RNA array
How it was run: as §1

| Variant | kcat (glucosamine-6-phosphate [1]) [s⁻¹] | self-cleavage kobs at 40 uM GlcN6P (glucosamine-6-phosphate [2]) [s⁻¹] | self-cleavage kobs at 640 uM GlcN6P (glucosamine-6-phosphate [3]) [s⁻¹] | self-cleavage kobs at 160 uM GlcN6P (glucosamine-6-phosphate [4]) [s⁻¹] | self-cleavage kobs at 10000 uM GlcN6P (glucosamine-6-phosphate [5]) [s⁻¹] | self-cleavage kobs at 2500 uM GlcN6P (glucosamine-6-phosphate [6]) [s⁻¹] |
| --- | --- | --- | --- | --- | --- | --- |
| G51A A53U | < 1e-05 | < 1e-05 | < 1e-05 | < 1e-05 | < 1e-05 |  |
| G51A G66U | < 1e-05 |  | < 1e-05 |  |  |  |
| G51U C58A | < 1e-05 |  | < 1e-05 |  |  |  |
| G51U G60A | < 1e-05 |  |  | < 1e-05 | < 1e-05 |  |
| U54A G62A | < 1e-05 |  |  |  | < 1e-05 |  |
| U56C G62A | < 1e-05 | < 1e-05 |  | < 1e-05 | < 1e-05 |  |
| U57C G66U | < 1e-05 |  |  |  |  |  |
| U57G C61A | < 1e-05 | < 1e-05 |  |  |  |  |
| U57G U65C | < 1e-05 |  | < 1e-05 |  | < 1e-05 |  |
| C58A G59U | < 1e-05 |  |  | < 1e-05 |  |  |
| C58U G60C | < 1e-05 | < 1e-05 |  |  | < 1e-05 |  |
| C58U G63C | < 1e-05 |  |  | < 1e-05 | < 1e-05 |  |
| G59A G66U | < 1e-05 |  |  |  |  |  |
| G59C C71A | < 1e-05 |  | < 1e-05 |  |  |  |
| G59U A64C | < 1e-05 | < 1e-05 |  |  | < 1e-05 | < 1e-05 |
| C61A C71A | < 1e-05 |  |  | < 1e-05 | < 1e-05 |  |
| C61G | < 1e-05 | < 1e-05 |  | < 1e-05 | < 1e-05 |  |
| G62A C71U | < 1e-05 | < 1e-05 |  |  | < 1e-05 |  |
| G62C C67U | < 1e-05 | < 1e-05 |  |  |  |  |
| G62C C70G | < 1e-05 |  |  |  |  |  |
| G62C G63C | < 1e-05 |  |  | < 1e-05 | < 1e-05 |  |
| G62U C70U | < 1e-05 |  |  |  |  |  |
| G62U U65A | < 1e-05 |  |  |  | < 1e-05 | < 1e-05 |
| G63A C70U | < 1e-05 |  |  |  |  |  |
| G63C C68A | < 1e-05 |  |  | < 1e-05 |  |  |

| Variant | kcat (glucosamine-6-phosphate [1]) [s⁻¹] | self-cleavage kobs at 40 uM GlcN6P (glucosamine-6-phosphate [2]) [s⁻¹] | self-cleavage kobs at 640 uM GlcN6P (glucosamine-6-phosphate [3]) [s⁻¹] | self-cleavage kobs at 160 uM GlcN6P (glucosamine-6-phosphate [4]) [s⁻¹] | self-cleavage kobs at 10000 uM GlcN6P (glucosamine-6-phosphate [5]) [s⁻¹] | self-cleavage kobs at 2500 uM GlcN6P (glucosamine-6-phosphate [6]) [s⁻¹] |
| --- | --- | --- | --- | --- | --- | --- |
| A64C C67U | < 1e-05 | < 1e-05 |  |  |  |  |
| U65C C67U C70A | < 1e-05 | < 1e-05 |  |  |  |  |
| C68U C70A | < 1e-05 | < 1e-05 | < 1e-05 |  | < 1e-05 |  |
| C68U C70G | < 1e-05 | < 1e-05 |  | < 1e-05 | < 1e-05 |  |
| A1C |  | 0.00111 ± 0.00028 |  |  |  |  |
| A1U U2G A3G C8G A12U G63C C68A |  | < 1e-05 |  |  |  |  |
| U2A A3U G9U A14U A52G U57C |  | < 1e-05 |  |  | < 1e-05 |  |
| A6C A12G C34U G35U G37A U46C |  | < 1e-05 | < 1e-05 |  |  |  |
| A6C A33C |  | < 1e-05 | < 1e-05 | < 1e-05 | < 1e-05 | < 1e-05 |
| A6C A36C G44U C50G U55G |  | < 1e-05 |  |  |  |  |
| A6C A42G C68G |  | < 1e-05 | < 1e-05 |  |  | < 1e-05 |
| A6C A42U |  | < 1e-05 | < 1e-05 | < 1e-05 | < 1e-05 |  |
| A6C A52U |  | < 1e-05 | < 1e-05 | < 1e-05 | < 1e-05 | < 1e-05 |
| A6C C10A G40A G66U |  | < 1e-05 |  |  | < 1e-05 |  |
| A6C C10A U49A G59C |  | < 1e-05 |  |  |  |  |
| A6C C10U U31C U55G |  | < 1e-05 |  |  | < 1e-05 |  |
| A6C C11U A14C G37U A39U A53G U65C |  | < 1e-05 |  |  |  |  |
| A6C C16A A42C C68G |  | < 1e-05 |  |  | < 1e-05 |  |
| A6C C58U |  | < 1e-05 |  | < 1e-05 | < 1e-05 |  |
| A6C C61U |  | < 1e-05 |  | < 1e-05 | < 1e-05 |  |
| A6C G7U G9C A53G |  | < 1e-05 |  |  | < 1e-05 |  |
| A6C G13U |  | < 1e-05 | < 1e-05 | < 1e-05 |  |  |
| A6C G29C A36U C61U |  | < 1e-05 |  |  | < 1e-05 | < 1e-05 |
| A6C G35A |  | < 1e-05 | < 1e-05 | < 1e-05 | < 1e-05 | < 1e-05 |

From the supplement of paper PMC7125110
